# Reference: PubChem BioAssay AID1347120 (National Center for Advancing Translational Sciences (NCATS), 2019)
# The campaign covered roughly 390,000 compounds. About 930 (0.24%) were called active. The shares of active, inactive and inconclusive entries below differ from those in the screen. The call rests on the fitted dose curve; in most records, active means well fitted activation curve with a large enough effect; inconclusive means small, poorly fitted or top-dose-only effect; inactive means no such curve, though single readings can be large or run the other way. Potencies of inconclusive entries are doubtful fits and often do not repeat.
# Assay: qHTS for Suppressors of FUS Proteinopathy: Primary screen using FUS-linked yeast assay; further: nearly all actives have a fitted effect of over 55% in size;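 on growth rescue (activation): plate controls were DMSO vehicle for no effect and reference control for full effect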
# Details: S. cerevisiae FUS-expressing, OD600, 24 h; Potency: growth rescue; growth rescue (activation): at 76.6 µM (top of the series)
# Summary of the method: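 S. cerevisiae expressing FUS from galactose induction served as the toxicity model. Growth after 24hr at 30C, read as absorbance at 600 nm, indicates suppression of toxicity; compounds dosed at several concentrations.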
# Potency means the concentration at half of the fitted maximal effect; tags describe the fitted curve by direction and shape.
SMILES,Potency,growth rescue (activation)
COC(=O)[C@]12C[C@H](CC(=O)N3CCSCC3)C(=O)N(Cc3ccc(Cl)cc3Cl)C1=C[C@H](COCc1ccccc1)O[C@@H]2C,"inconclusive: 28.2 µM [activator, partial curve, poor fit]",–
O=C(CSc1nnc(-c2cccnc2)n1-c1ccc(Cl)cc1)Nc1cccc2ccccc12,inactive,–
CC(C(=O)Nc1ccccc1Br)c1ccc([N+](=O)[O-])cc1 (configuration not stated),inactive,–
COC(=O)CSc1nsc(SCC(=O)OC)c1C#N,"inconclusive: 1.58 µM [activator, partial curve, poor fit]",–
Cc1cc(NC(=O)COc2ccccc2C)ccc1NC(=O)c1cccs1,"inconclusive: 31.6 µM [activator, partial curve, poor fit]",–
Cc1ccc(NC(=O)COC(=O)CN2C(=O)COc3ccccc32)cc1,"inconclusive: 28.2 µM [activator, single point]",–
COC(=O)[C@]12C[C@H](CC(=O)N3CCCC3)C(=O)N(CCc3ccc(OC)c(OC)c3)C1=C[C@H](COCc1ccccc1)O[C@@H]2C,inactive,–
C[C@H](NC(=O)c1nc[nH]c1C(=O)N[C@@H](CCCCNC(=O)OC(C)(C)C)C(=O)OC(C)(C)C)C(=O)OCc1ccccc1,"inconclusive: 12.6 µM [activator, partial curve, poor fit]",–
COc1cc(NC(=O)c2cnc(N)s2)cc(C(=O)Nc2cccc(C(F)(F)F)c2)c1,"inconclusive: 50.1 µM [activator, single point]",–
O=C(C1CCCN(S(=O)(=O)c2ccc(Br)s2)C1)N1CCN(c2ccccc2)CC1 (configuration not stated),"inconclusive: 35.5 µM [activator, partial curve, poor fit]",–
Cc1ccc(-c2ccc(=O)n(CC(=O)Nc3cccc(C#N)c3)n2)cc1,inactive,–
COc1ccc(OC)c(C(=O)COC(=O)c2ccc([N+](=O)[O-])o2)c1,inactive,–
C=Cc1ccc(Cn2c(C(=O)O)c(CNCc3ccccc3)c3ccc(C)cc32)cc1,"inconclusive: 31.6 µM [activator, single point]",–
COc1ccc(N(CC(=O)Nc2ccc3c(c2)OCO3)S(=O)(=O)c2ccccc2)c(OC)c1,"inconclusive: 14.1 µM [activator, partial curve]",–
COc1ccc(NC(=O)c2ccc3c(=O)n4nc(Nc5cccc(Cl)c5C)sc4nc3c2)cc1,inactive,–
c1ccc(-c2ncc(CSc3nncn3-c3ccccc3)s2)cc1,"inconclusive: 25.1 µM [activator, partial curve, poor fit]",–
COc1ccc(S(=O)(=O)Nc2cccc3c2O[C@H](CN(C)S(=O)(=O)c2ccc(Cl)cc2)[C@H](C)CN([C@H](C)CO)C3=O)cc1,active: 10 µM,–
CCOC(=O)COc1ccccc1C1Nc2ccccc2C(=O)N1c1cccc(Cl)c1 (configuration not stated),"inconclusive: 44.7 µM [activator, single point]",–
Cc1ccc(C(C(=O)NC2CCCCC2)N(C(=O)Cc2c[nH]c3ccccc23)c2ccccc2)o1 (configuration not stated),"inconclusive: 11.2 µM [activator, single point]",–
Cc1ccc(C)n1-n1cnc2sc3c(c2c1=O)CCC3,inactive,–
CCN1C2=C(C(=O)CCC2)C(c2ccc(O)c(Br)c2)C2=C1CCCC2=O,"inconclusive: 7.94 µM [activator, partial curve, poor fit]",–

SMILES,Potency,growth rescue (activation)
CCOc1ccc(CNC(=O)c2ccc(Sc3ccc(Cl)cc3)c(NC(C)=O)c2)cc1OC,"inconclusive: 31.6 µM [activator, single point]",–
CC(=O)Nc1cc(C(=O)NCc2ccco2)ccc1Sc1ccc(Cl)cc1,inactive,–
O=C1CN(C(=O)c2ccc(Cl)c(S(=O)(=O)N3CCc4ccccc43)c2)c2ccccc2N1,"inconclusive: 35.5 µM [activator, single point]",–
CC(=O)N1CC[n+]2c(-c3ccc(Cl)cc3Cl)csc21,"inconclusive: 50.1 µM [activator, single point]",–
CCOC(=O)C1=CCN(S(=O)(=O)c2ccc(C)cc2)C1c1ccccc1 (configuration not stated),inactive,–
CC1=C(C(=O)Nc2ccc(C)cc2C)C(c2ccccc2)n2ncc(C(=O)Nc3ccccc3)c2N1 (configuration not stated),"inconclusive: 50.1 µM [activator, single point]",–
CCOC(=O)c1c(-c2ccccc2)csc1NC(=O)c1cc(-c2ccc(Cl)cc2)on1,inactive,–
Cc1ccc(N=Cc2cc(Cl)cc(Cl)c2O)nc1,inactive,–
COc1cc(OC)cc(C2=Cc3ccc(OC)cc3C(CC(C)=O)N2c2ccc(-c3cncnc3)cc2)c1 (configuration not stated),"inconclusive: 50.1 µM [activator, single point]",–
COC(=O)c1ccc2c(=O)n(CCCCCC(=O)N3CCN(c4ccc(OC)cc4)CC3)c(=O)[nH]c2c1,"inconclusive: 50.1 µM [activator, single point]",–
Cc1ccc(S(=O)(=O)N2[C@@H](c3ccc4c(c3)OCO4)C(C(=O)O)=C[C@H]2CC2CCCC2)cc1,"inconclusive: 50.1 µM [activator, single point]",–
CNc1cncc(-c2cccc(NS(C)(=O)=O)c2)n1,inactive,–
CC(=O)c1ccc(N2CCN(S(=O)(=O)c3ccc4[nH]c5c(c4c3)CCCC5)CC2)cc1,"inconclusive: 20 µM [activator, partial curve]",–
C#CCNC(=O)C[C@@H]1C[C@@]2(C(=O)OC)CC(C)(C)CC=C2N(Cc2cccc3ccccc23)C1=O,"inconclusive: 22.4 µM [activator, single point]",–
Cn1c(=O)c2c(nc(CN3CCN(C(=O)c4ccco4)CC3)n2CCCc2ccccc2)n(C)c1=O,"inconclusive: 15.8 µM [activator, partial curve, poor fit]",–
CC1CN(S(=O)(=O)c2cccc(C(=O)N(Cc3nnc(-c4ccccc4Cl)o3)C3CC3)c2)CC(C)O1 (configuration not stated),inactive,–
C[C@H](O)[C@@H]1CN2CCc3c([nH]c4c(-c5ccc6c(c5)OCO6)cccc34)[C@@H]2C[C@@H]1N(C)C(=S)NCCc1ccccc1,"inconclusive: 25.1 µM [activator, single point]",–
C=CCc1cccc(/C=N/NC(=O)c2ccccc2OC)c1O,inactive,–
CC1(C(=O)NCc2cccs2)Cc2c(-c3ccc4c(c3)OCO4)ccnc2O1 (configuration not stated),"inconclusive: 35.5 µM [activator, single point]",–
Cc1ccccc1NC(=O)Cc1nc(COC(=O)Cc2cccc(C(F)(F)F)c2)cs1,"inconclusive: 17.8 µM [activator, partial curve]",–
CCN1CCN(C(c2cccc(F)c2)c2c(O)cc(C)n(Cc3ccco3)c2=O)CC1 (configuration not stated),inactive,–

SMILES,Potency,growth rescue (activation)
Cc1nn(C)c2c1c(-c1ccccc1)cc(=O)n2C(C)C(=O)NCc1ccc(F)cc1 (configuration not stated),"inconclusive: 28.2 µM [activator, partial curve, poor fit]",–
Cc1cccc(C)c1NC(=O)C(c1ccncc1)n1c(=O)c(-c2ccco2)nc2ccccc21 (configuration not stated),"inconclusive: 39.8 µM [activator, single point]",–
COc1cc(C(=O)N[C@H](C(=O)NC(C)C23CC4CC(CC(C4)C2)C3)C(C)C)cc(OC)c1OC (some centres not stated),"inconclusive: 11.2 µM [activator, partial curve, poor fit]",–
c1ccc(-c2nnc(N3CCN(c4ccccn4)CC3)c3ccccc23)cc1,–,inconclusive: 68.8% [activator]
CC(=O)c1cccc(NC(c2ccc(F)cc2)c2nnc(-c3ccccc3)o2)c1 (configuration not stated),"inconclusive: 50.1 µM [activator, single point]",–
COCCN(C(=O)COC(=O)Cc1coc2cc3c(cc12)CCC3)c1c(N)n(Cc2ccccc2)c(=O)[nH]c1=O,"inconclusive: 35.5 µM [activator, partial curve, poor fit]",–
O=C(OCn1nnc2ccccc2c1=O)c1cn(-c2ccccc2)nc1-c1cccnc1,"inconclusive: 25.1 µM [activator, single point]",–
COc1ccc(OC)c(CCNC(=O)c2cnn(-c3ccccc3)c2C2CCN(C(=O)OC(C)(C)C)CC2)c1,"inconclusive: 31.6 µM [activator, single point]",–
COc1ccc(-c2cn3nc(N4CCCC(C(=O)NCc5ccccc5Cl)C4)sc3n2)cc1 (configuration not stated),"inconclusive: 22.4 µM [activator, partial curve, poor fit]",–
Cc1cccc(CNC(=O)CCn2ccc3cc(S(=O)(=O)N4CCCC4)ccc32)c1,"inconclusive: 31.6 µM [activator, single point]",–
COC(=O)c1cc2oc3ccccc3c2n1Cc1cc(C)ccc1C,inactive,–
O=C(c1cc2c(=O)n3ccccc3nc2s1)N1CCN(c2cccc(Cl)c2)CC1,"inconclusive: 50.1 µM [activator, partial curve, poor fit]",–
CCOC(=O)C1CCCN(Cc2nc(N)nc(Nc3ccccc3)n2)C1 (configuration not stated),inactive,–
Cc1cc(C)nc(NS(=O)(=O)c2ccc(NC(=O)COc3ccc(C(C)(C)C)cc3)cc2)n1,active: 28.2 µM,–
O=C(CSc1nc2ccccc2n1Cc1ccccc1)NN=Cc1c[nH]c2ccccc12,inactive,–
Cc1ccc(CN(C(=O)c2csnn2)C(C(=O)NC2CCCC2)c2ccccn2)cc1 (configuration not stated),inactive,–
N/C(=N\OC(=O)COc1ccc2ccccc2c1Br)c1ccccn1,"inconclusive: 44.7 µM [activator, single point]",–
CC(C)Cn1cc(NC(=O)N2CCN(c3ccccc3F)CC2)c2ccccc2c1=O,inactive,–
O=C(COC(=O)/C=C/c1ccco1)NCc1ccc(Cl)cc1,inactive,–
CCOC(=O)C1=C(C)N=c2s/c(=C\c3ccc(OCC(=O)O)c(OC)c3)c(=O)n2C1c1ccc(OC)cc1 (configuration not stated),active: 35.5 µM,–
